# According to PubChem BioAssay AID624417 (National Center for Advancing Translational Sciences (NCATS), 2012):
# Among all 410,000 compounds or so, about 6,400 (1.6%) were called active. Inconclusive means that the source gave no clear call. Such entries were picked first, then a sample of the others. Calls follow the shape of the dose curve; as a rule, active = well fitted inhibition curve with a large enough effect; inconclusive = small, poorly fitted or top-dose-only effect; inactive = no such curve, though single readings can be large or run the other way. Potencies of inconclusive entries are left out as doubtful fits.
# Target: Glucagon-like peptide 1 receptor (Homo sapiens) (UniProt P43220)
# Chain of UniProt P43220 (P43220 whole entry, looked up): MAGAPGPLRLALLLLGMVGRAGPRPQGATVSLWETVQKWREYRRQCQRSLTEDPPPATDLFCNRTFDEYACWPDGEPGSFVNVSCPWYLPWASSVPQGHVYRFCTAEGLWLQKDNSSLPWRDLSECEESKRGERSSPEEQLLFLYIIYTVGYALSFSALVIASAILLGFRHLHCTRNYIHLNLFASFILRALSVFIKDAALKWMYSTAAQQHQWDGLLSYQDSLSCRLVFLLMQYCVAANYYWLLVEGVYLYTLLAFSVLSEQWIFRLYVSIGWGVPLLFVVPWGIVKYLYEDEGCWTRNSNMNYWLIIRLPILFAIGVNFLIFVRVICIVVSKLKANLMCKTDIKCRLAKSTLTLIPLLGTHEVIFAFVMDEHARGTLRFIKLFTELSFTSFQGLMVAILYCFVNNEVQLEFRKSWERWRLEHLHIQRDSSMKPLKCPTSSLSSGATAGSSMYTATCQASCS
# Test: qHTS of GLP-1 Receptor Inverse Agonists (Inhibition Mode); also: nearly all actives have a fitted effect of over 55% in size
# Details: HEK293 GLP-1R CRE-luciferase, luminescence, 24 h, GLP-1R form is constitutively active; series mostly up to 38.3 µM
# Outline: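 Inverse agonism was detected as reduced cAMP-driven luciferase luminescence after 24 h compound treatment. The cells were HEK293 clones expressing constitutively active human GLP-1R with the reporter. Reporter-only and GPR119 cell lines served as counterscreen controls.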
# Potency is read from the fitted curve at half-maximal effect; tags tell the direction and shape of the fitted curve.
row,Compound,Potency
1,CCn1c(SCC(=O)Nc2ccc(C)cc2)nnc1-c1ccccn1,"inconclusive [inhibitor, partial curve, poor fit]"
2,CCOC(=O)CCCNC(=O)CCNC(=O)c1ccc(OCC)cc1,"inconclusive [inhibitor, partial curve, poor fit]"
3,CCN(CC)S(=O)(=O)c1ccc(N2CCN(C)CC2)c(NC(=O)COc2ccc(F)cc2Cl)c1,"inconclusive [inhibitor, single point]"
4,CCN(c1ccc(OC)cc1)S(=O)(=O)c1cc(-c2cc(C)no2)ccc1C(C)C,"inconclusive [inhibitor, partial curve, poor fit]"
5,C=CCNC(=O)c1onc(CSc2ccc(F)c(F)c2)c1C(=O)NCC=C,"inconclusive [inhibitor, single point]"
6,Cc1cccc(-c2sc(Nc3ccccc3)n[n+]2-c2ccc(F)cc2)c1,inactive
7,Oc1ccc(CCNc2ncnc3ccc(Cl)cc23)cc1,"inconclusive [inhibitor, partial curve, poor fit]"
8,O=C(NCc1ccc2c(c1)CCN2C(=O)c1ccncc1)c1cccc(F)c1,inactive
9,CCCC1=Nc2cc(C(=O)NCCN3CCCC3)ccc2Sc2ccccc21,"inconclusive [inhibitor, partial curve, poor fit]"
10,CC1(C(=O)Nc2ccc(Cl)c(C(F)(F)F)c2)Cc2c(-c3ccccc3)ccnc2O1 (centres undefined),"inconclusive [inhibitor, partial curve, poor fit]"
11,Cc1c(NC(=O)c2ccc(S(=O)(=O)Nc3ccccc3F)cc2)c(=O)n(-c2ccccc2)n1C,inactive
12,COCCOc1cc(NC(=O)c2sccc2Oc2ccc([N+](=O)[O-])cc2F)c(Cl)cc1Cl,"inconclusive [inhibitor, partial curve, poor fit]"
13,O=C(CSc1ccc(Cl)cc1)Nc1ccc(N2CCN(c3ccccc3)CC2)c(F)c1,inactive
14,CCc1ccccc1NC(=O)CN1CCN(CC(=O)Nc2ccc(-c3ccccc3)cc2)CC1,inactive
15,CC(=O)N(Cc1ccc(Br)cc1)c1cccc(C)c1C,"inconclusive [inhibitor, single point]"
16,C=CCc1ccc(OCCCCN2CC(C)OC(C)C2)c(OC)c1 (centres undefined),"inconclusive [inhibitor, partial curve]"
17,Cc1cccc(NC(=O)c2cc3c(C)nn(-c4ccccc4)c3s2)c1,"inconclusive [inhibitor, single point]"
18,Cc1ccc2nc(NC(=O)C(NS(=O)(=O)c3cccc4nsnc34)C(C)C)sc2c1 (centres undefined),"inconclusive [inhibitor, single point]"
19,CCOC(=O)C1=NN(C(=O)Nc2cccc(C(F)(F)F)c2)C2C(=O)N(c3cccc(C(F)(F)F)c3)C(=O)C12 (centres undefined),"inconclusive [inhibitor, partial curve, poor fit]"
20,O=c1c2ccccc2nc2n1CCO2,inactive

row,Compound,Potency
1,Cc1ccc(C(C)C)c(OCCNC(=O)c2ccccc2O)c1,"inconclusive [inhibitor, partial curve, poor fit]"
2,O=C(Cc1ccccc1)Nc1nc(-c2ccc(F)c(F)c2)cs1,"inconclusive [inhibitor, full curve, poor fit]"
3,CCOc1ccc2[nH]c(=O)c(CN(Cc3cccs3)Cc3nnnn3C(C)(C)CC)cc2c1,"inconclusive [inhibitor, single point]"
4,CCOC(=O)C1(Cc2cccc(OC)c2)CCCN(C(=O)c2cc(C)oc2C)C1 (centres undefined),"inconclusive [inhibitor, partial curve, poor fit]"
5,COc1cccc(C2c3[nH]c4ccccc4c3CCN2C(=O)c2ccccc2F)c1OC (centres undefined),"inconclusive [inhibitor, partial curve, poor fit]"
6,CCNC(=S)N1CCN(C(c2ccccc2)c2ccccc2)CC1,"inconclusive [inhibitor, single point]"
7,CCN1CCN(c2ccc(S(=O)(=O)N3CCCCC3)cc2NC(=O)c2ccc([N+](=O)[O-])o2)CC1,inactive
8,COC(=O)[C@@]12C[C@@H](CC(=O)NCc3cccc4ccccc34)C(=O)N(CCc3ccc(OC)c(OC)c3)C1=CCC(C)(C)C2,"inconclusive [inhibitor, single point]"
9,COCCNC(=O)CCc1ccc(S(=O)(=O)Nc2ccc(C)cc2)cc1,"inconclusive [inhibitor, single point]"
10,Cc1ccc(-c2noc(CNS(=O)(=O)c3ccccc3)n2)cc1,"inconclusive [inhibitor, single point]"
11,O=C(c1ccc(Cl)c(S(=O)(=O)N2CCCC2)c1)N1CCN(c2ccc(F)cc2)CC1,"inconclusive [inhibitor, single point]"
12,O=C(CCNc1cc(Cl)cc(Cl)c1)c1ccco1,"inconclusive [inhibitor, partial curve, poor fit]"
13,Cc1ccc(N(CC(=O)Nc2ccccc2C(=O)NCc2ccco2)S(=O)(=O)c2ccccc2)cc1C,"inconclusive [inhibitor, partial curve]"
14,COC(=O)c1cc(NC(=O)CCc2c(C)nc3nc(C)nn3c2C)cc(C(=O)OC)c1,inactive
15,CCN1C(=O)c2ccccc2S(=O)c2ccc(C(=O)N3CCN(c4cccc(Cl)c4)CC3)cc21 (centres undefined),inactive
16,O=C(Cc1ccc(F)cc1)NCCc1csc2nc(-c3ccc(Cl)cc3)nn12,"inconclusive [inhibitor, single point]"
17,Cc1cccc(-c2nc3ccccc3c(=O)n2NC(=O)Cc2ccc(Cl)cc2)c1,"inconclusive [inhibitor, single point]"
18,O=C(/C=C/c1ccc(O)c([N+](=O)[O-])c1)c1ccc2ccccc2c1,"inconclusive [inhibitor, single point]"
19,CC(C)(CN1CCN(Cc2ccccc2)CC1)NS(=O)(=O)c1ccccc1,"inconclusive [inhibitor, partial curve, poor fit]"
